# Measurements reported in PubChem BioAssay AID686978 (National Center for Advancing Translational Sciences (NCATS), 2013).
# Where “and” joins values, the source holds several entries; their conditions need not be identical. Equal entries are not always repeated. In all, about 420,000 compounds went through this assay and about 64,000 (15%) were called active. Inconclusive results, whose numbers are uncertain, are shown with a selection of clear calls. The call rests on the fitted dose curve; in most records, active means well fitted inhibition curve with a large enough effect; inconclusive means small, poorly fitted or top-dose-only effect; inactive means flat fitted curve, though single readings scatter. Potencies beside an inconclusive call are fits to weak or partial responses and may not hold up.
# Experiment: qHTS for Inhibitors of human tyrosyl-DNA phosphodiesterase 1 (TDP1): qHTS in cells in absence of CPT; further: nearly all actives have a fitted effect of over 55% in size
# Details: DT40 Tdp1-/- hTDP1 cells, no CPT, ATP luminescence, 48 h; activity change, negative = growth inhibition: at 46.2 µM (top of the series) unless noted
# In short: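 Seeded 400 DT40-hTDP1 cells/well (vehicle DMSO, no 20 nM CPT); pinned compounds; ≥48 hr at 37 °C; CellTiter-Glo luminescence as viability measure.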
# On the % scale 0 is the no-effect control and ±100 the full control effect; potency means the concentration at half of the fitted maximal effect; tags describe the fitted curve by direction and shape.
Compound,"activity change, negative = growth inhibition",Potency
O=C1CCCN1CCCNC(=S)Nc1ccccc1,inactive: 0.802%,
CC(=O)Nc1ccc(S(=O)(=O)Oc2cccc(N3C(=O)C4CC=CCC4C3=O)c2)cc1 (stereo unspecified),,active: 20.6 µM
COc1cccc(C(=O)NC2CCCc3ccccc32)c1OC (stereo unspecified),,active: 23.1 µM
CCOc1ccc(NS(=O)(=O)c2ccc3c(c2)NC(=O)CCS3)cc1,,active: 11.6 µM
COc1ccc2oc(-c3ccco3)cc(=O)c2c1,inconclusive: -33.2% [inhibitor],
CC1(C)Oc2ccc3ccc(=O)oc3c2/C(=C/NNC(N)=S)C1=O,,"inconclusive: 16.4 µM [inhibitor, single point]"
Cc1cc(C(=O)N/N=C/c2ccc3c(c2)OCO3)c(C)o1,,"inconclusive: 13 µM [inhibitor, partial curve]"
COc1ccc(C(=O)c2cn(CC(=O)Nc3cc(OC)cc(OC)c3)c3ccc(OC)cc3c2=O)cc1,,"inconclusive: 23.1 µM [inhibitor, partial curve]"
COc1ccccc1NC(=O)COc1coc(CN2CCN(c3ccccc3)CC2)cc1=O,inactive: -27.1%,
[O-]/[N+](=C\C=C\c1ccccc1)c1ccccc1,,"inconclusive: 32.6 µM [inhibitor, single point]"
COc1ccc2cc3cc(C(=O)Nc4ccc5c(c4)OCCO5)oc3nc2c1,,"inconclusive: 6.51 µM [inhibitor, partial curve]"
COC(=O)c1ccccc1NC(=O)Cn1c(=O)n(CCC(=O)NCc2ccc3c(c2)OCO3)c(=O)c2ccccc21,,"inconclusive: 29.1 µM [inhibitor, single point]"
COc1ccc2oc(C(=O)c3ccccc3)c(N)c2c1,inconclusive: -32.4% [inhibitor],
COc1ccc(/C=C/C(=O)Nc2ccc(NC(C)=O)cc2)cc1S(=O)(=O)N1CCOCC1,,"inconclusive: 29.1 µM [inhibitor, single point]"
CC[n+]1c(/C=C/N(C)c2ccccc2)n(-c2ccccc2)c2ccc(-c3nc4ccccc4s3)cc21,,active: 0.731 µM
Cn1c(Cc2ccccc2)nnc1SCC(=O)N1CCCCC1,inactive: -6.14%,
COc1ccc(NC(=O)COc2ccc(/C=N/NC(=O)c3cccnc3)cc2OC)cc1,,active: 23.1 µM
CN1C(=O)CC(N2CCN(c3ccc(Cl)c(Cl)c3)CC2)C1=O (stereo unspecified),,"inconclusive: 25.9 µM [inhibitor, single point]"
CCOC(=O)c1cnc2ccc(OC)cc2c1NCc1ccccc1,,"inconclusive: 23.1 µM [inhibitor, single point]"
ON=C(CCc1ccccc1)c1ccccc1,,"inconclusive: 18.4 µM [inhibitor, partial curve]"
CCC(=O)N1CCN(c2ccc(NC(=O)c3ccc(C#N)cc3F)cc2Cl)CC1,,"inconclusive: 16.4 µM [inhibitor, partial curve]"
Cc1ccc(-c2csc(-c3c(N)c(C(=O)c4ccc5c(c4)OCO5)n4ccccc34)n2)cc1,,"inconclusive: 2.91 µM [inhibitor, partial curve]"
O=C(N/N=C/c1cccc([N+](=O)[O-])c1)c1ccccc1-n1cccc1,,"inconclusive: 20.6 µM [inhibitor, single point]"
N#Cc1cc2c(=O)n3ccccc3nc2n(-c2ccccc2Cl)c1=O,,"inconclusive: 7.31 µM [inhibitor, partial curve, poor fit]"

Compound,"activity change, negative = growth inhibition",Potency
Cc1ccc(Cn2nc3n(c2=O)-c2cc(Cl)ccc2OC3)cc1,inactive: -18.9%,
Cc1ccc2c(Cl)cc(Cl)c(OCC(=O)NC3CCS(=O)(=O)C3)c2n1 (stereo unspecified),,"inconclusive: 29.1 µM [inhibitor, single point]"
Cc1ccc(-c2cn3nc(N4CCCC(C(=O)NCc5ccccc5F)C4)sc3n2)cc1 (stereo unspecified),,"inconclusive: 18.4 µM [inhibitor, single point]"
CCCN(CCC)CCCNC(=O)C1c2cc(OC)c(OC)cc2C(=O)N(C)C1c1cccnc1 (stereo unspecified),inactive: 1.07%,
CSCCC(NS(=O)(=O)c1ccc(C)cc1)C(=O)Nc1ccc(C)cn1 (stereo unspecified),inactive: -3.65%,
CC(=O)c1ccc(N2CCN(C(=O)C3CCN(S(=O)(=O)Cc4ccccc4)CC3)CC2)cc1,,"inconclusive: 29.1 µM [inhibitor, single point]"
Cc1ccc(CNC(=O)C2CN(S(C)(=O)=O)c3cc(Cl)ccc3O2)cc1 (stereo unspecified),inconclusive: -35.6% [inhibitor],
Cc1ccc(S(=O)(=O)N2[C@H](c3ccccc3)CC(=O)[C@@H]3CN(S(=O)(=O)c4ccccc4)[C@H](c4ccccc4)C[C@@H]32)cc1,,"inconclusive: 3.66 µM [inhibitor, single point]"
CN(C)S(=O)(=O)c1ccc(NC(=O)COc2cccc3c2OC(C)(C)C3)cc1,,"inconclusive: 25.9 µM [inhibitor, single point]"
CCn1cc(C(=O)NCCN(CC(C)C)CC(C)C)c(=O)c2cc(S(=O)(=O)N3CCOCC3)ccc21,,"inconclusive: 23.1 µM [inhibitor, partial curve]"
COc1ccc(NC(=S)N/N=C2/CCCc3c(C)cc(C)cc32)cc1,inactive: -26.9%,
COc1ccc(Cc2nnc(NC(=O)C3CCCO3)s2)cc1OC (stereo unspecified),,"inconclusive: 29.1 µM [inhibitor, single point]"
COc1ccc(CNCCCNCc2ccc(OC)c(OC)c2)cc1OC,inactive: -14.4%,
CCC(C)(C)n1nnnc1C(c1cc2cc(OC)c(OC)cc2[nH]c1=O)N1CCc2ccccc21 (stereo unspecified),,"inconclusive: 25.1 µM [inhibitor, single point]"
CCC(Oc1ccccc1)C(=O)Nc1nnc(S(=O)(=O)N2CCCCC2)s1 (stereo unspecified),,"inconclusive: 6.51 µM [inhibitor, single point]"
COc1ccccc1CN(C)C(=O)c1ccc(COc2ccccc2)cc1,,"inconclusive: 20.6 µM [inhibitor, partial curve]"
CCc1ccc(-c2cc(C(=O)NN3CCOCC3)c3ccccc3n2)cc1,,active: 1.3 µM
Cc1cc(C)n(CCC(=O)N2CCN(S(=O)(=O)c3ccccc3)CC2)n1,inactive: -6.55%,
O=C(COc1ccccc1Cl)NCCNC(=O)c1ccncc1,inactive: -19.9%,
COc1cccc(/C=c2\s/c(=C/C(=O)c3ccc(C)cc3)[nH]c2=O)c1OC,,"inconclusive: 20.6 µM [inhibitor, partial curve]"
FC(F)Sc1nc2ccccc2[nH]1,inactive: -12.7%,
CCOc1ccccc1NC(=O)Cn1nnc(C(=O)Nc2ccccc2Cl)c1N,inconclusive: -31.6% [inhibitor],
Cc1nn(Cc2c(F)c(F)c(F)c(F)c2F)c(C)c1NC(=O)c1nn(C)c(C)c1Br,,"inconclusive: 23.1 µM [inhibitor, single point]"
CC(=O)Nc1ccc(S(=O)(=O)NCC2CCC(C(=O)NCCC(C)C)CC2)cc1 (stereo unspecified),inactive: -28.8%,

Compound,"activity change, negative = growth inhibition",Potency
CCS(=O)(=O)c1cc([N+](=O)[O-])c(Sc2ccccc2N)s1,,"inconclusive: 29.1 µM [inhibitor, single point]"
COC(=O)C1=CN(Cc2ccc(OC)c(OC)c2)C=C(C(=O)OC)C1c1ccc(F)cc1,,"inconclusive: 29.1 µM [inhibitor, single point]"
COc1ccc2nc(/N=C(\N)NC(=O)Nc3ccccc3)nc(C)c2c1,,"inconclusive: 16.4 µM [inhibitor, single point]"
COc1cc(NC(=O)COC(=O)Cc2ccc(-c3ccccc3)cc2)cc(OC)c1,inactive: -11.7%,
S=c1nc(-c2csc3c2CCCC3)[nH][nH]1,,active: 16.4 µM
COc1cc(OC)cc(C(=O)NNC(=O)CNC(=O)c2ccc(Br)o2)c1,inactive: -1.82%,
Cc1ccc(CNC(=O)c2ccc3c(c2)CCN3S(=O)(=O)c2ccc(Br)cc2)cc1,inactive: -23.9%,
Cc1ccc(-c2nnc(Nc3ccc(OCC(N)=O)cc3)c3ccccc23)cc1S(N)(=O)=O,inactive: 21.5%,
NC(=O)c1cc(S(=O)(=O)NCc2cccc(Br)c2)cs1,,"inconclusive: 29.1 µM [inhibitor, single point]"
Cc1nc2ccn(Cc3ccco3)c(=O)c2cc1C(=O)NCc1ccc(Cl)cc1,,"inconclusive: 29.1 µM [inhibitor, single point]"
O=[N+]([O-])c1cccc(-c2nnc3n2CCCCC3)c1,inactive: -11.4%,
O=C(c1cc(COc2cccc3cccnc23)on1)N1CCC[C@H]1CO,inactive: 0.43%,
CCS(=O)(=O)CCSC(=N)N,,"inconclusive: 29.1 µM [inhibitor, single point]"
COC(=O)c1ccc(NC(=O)Cn2c(=O)oc3ccccc32)cc1,inactive: -5.54%,
Cc1ccccc1C(=O)NNC(=O)CSc1nc(-c2ccccc2)cc(=O)[nH]1,,"inconclusive: 29.1 µM [inhibitor, single point]"
Cc1cccc2c1-c1sc(C(=O)NCCCN3CCc4ccccc4C3)cc1CO2,,active: 20.6 µM
Cc1c(C(=O)NNC(=O)c2csc(N3CCOCC3)n2)oc2ccc(Br)cc12,,"inconclusive: 18.4 µM [inhibitor, single point]"
Clc1ccc(C(Cn2ccnc2)OCc2c(Cl)cccc2Cl)c(Cl)c1 (stereo unspecified),,"inconclusive: 10.1 µM [inhibitor, single point] and inconclusive: 23.1 µM [inhibitor, single point]"
CCn1c(SCC(=O)Nc2cc(C)ccc2F)nnc1-c1ccccc1O,,"inconclusive: 29.1 µM [inhibitor, single point]"
COc1ccccc1CC1(C)C(=O)Nc2ccc(S(=O)(=O)NC3CCCCC3)cc21 (stereo unspecified),,"inconclusive: 18.4 µM [inhibitor, single point]"
O=C(NCCCN1CCOCC1)C1CCCN(S(=O)(=O)N2CCCCC2)C1 (stereo unspecified),inactive: 32.6%,
COc1ccc(N2CC(NC(=O)C3CCCCC3)CC2=O)cc1 (stereo unspecified),inactive: -21.8%,
CNc1ccc(S(=O)(=O)NCC(=O)OC(C)C(=O)N(C)Cc2ccccc2)cc1[N+](=O)[O-] (stereo unspecified),inactive: -13.3%,
